Measured values: PubChem BioAssay AID1345082 (National Center for Advancing Translational Sciences (NCATS), 2018)
Screen size: about 94,000 compounds; about 4,000 (4.3%) were called active. Inconclusive means that the source gave no clear call. Such entries were picked first, then a sample of the others. Calls follow the shape of the dose curve; as a rule, active = well fitted inhibition curve with a large enough effect; inconclusive = small, poorly fitted or top-dose-only effect; inactive = no such curve, though single readings can be large or run the other way. Where the call is inconclusive, the potency comes from a doubtful curve fit.
Potency is read from the fitted curve at half-maximal effect; tags tell the direction and shape of the fitted curve.

Experiment: Cytotoxic Profiling in NIH 3T3 Cell Line of Diverse Libraries Using Quantitative High-Throughput Screening; also: nearly all actives have a fitted effect of over 55% in size
Conditions: NIH 3T3 viability, CellTiter-Glo ATP luminescence, 48-72 h; series mostly up to 96.7 µM
Procedure, shortened: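 First NIH 3T3 cells are plated at 400 cells/well; next compound is pinned in; then plates incubate 48 or 72 hr at 37 °C; finally CellTiter-Glo is added and luminescence read after 10 min.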
In the case of `NCc1cccc(-c2cccs2)c1`, the Potency is reported as inconclusive: 44.7 µM [inhibitor, single point].
For `O=C(NCc1ccccn1)C1CCCN(c2ccnc3ccnn23)C1` (stereo not given), the Potency was inconclusive: 39.8 µM [inhibitor, partial curve].
In the case of `CC(C(N)=O)N1CCC(n2nccc2NC(=O)c2ccc3c(c2)OCO3)CC1` (stereo not given), the Potency is reported as “inactive”.
With `COc1ccc(NC(=O)Cn2c(N3CCCCC3)nc(C)c(C)c2=O)cc1Cl` the Potency was inconclusive: 44.7 µM [inhibitor, partial curve, poor fit].
For `C[S+](=O)([O-])c1ccc(-c2nnc3n2C(C(=O)N2CCCC2)CC3)cc1` (stereo not given), the Potency was “inactive”.
For `O=C1N[C@H](CC(=O)N2CCC(c3noc4cc(F)ccc34)CC2)C(=O)Nc2ccccc21`, the Potency was inconclusive: 39.8 µM [inhibitor, partial curve, poor fit].
For `COc1cccc(-c2cc(C(=O)NCC34CCC=C3N(C)C(=O)CC4)[nH]n2)c1` (stereo not given), the Potency was inconclusive: 50.1 µM [inhibitor, partial curve, poor fit].
For `COc1ccc(-c2cc(C[C@H]3CNCC[C@H]3CC(=O)NCc3ccc(F)cc3)no2)cc1`, the Potency was inconclusive: 56.2 µM [inhibitor, partial curve, poor fit].
With `CNC(=O)c1cc(C2CC2)nc2onc(C3CCCN3C(=O)C3CCCC3)c12` (stereo not given) the Potency was inconclusive: 31.6 µM [inhibitor, full curve].
With `NC(=O)[C@@H]1C[C@H]2CN(c3ccccc3)C(=O)c3cccc(c32)N1C(=O)C1CCC1` the Potency was inconclusive: 17.8 µM [inhibitor, partial curve, poor fit].
In the case of `O=C(NCc1ccccc1F)c1ccc2oc(-c3ccccn3)nc2c1`, the Potency is reported as inconclusive: 28.2 µM [inhibitor, partial curve, poor fit].
In the case of `O=C(C1CCCN1C(=O)c1ccccc1)N1CCC(N2Cc3ccccc3C2=O)CC1` (stereo not given), the Potency is reported as “inactive”.
For `O=C(Nc1ccc2c(c1)OCO2)N1CCc2onc(-c3ccc(F)c(F)c3)c2C1`, the Potency was inconclusive: 70.8 µM [inhibitor, partial curve, poor fit].
With `CC(=O)Nc1ccc(CN2CCOC[C@H]2c2ncc(-c3cccc(Cl)c3)[nH]2)cc1` the Potency was inconclusive: 100 µM [inhibitor, single point].
For `CCc1ccccc1NC(=O)CN1C(=O)C(c2ccccc2)=NC12CCCC2`, the Potency was inconclusive: 44.7 µM [inhibitor, partial curve, poor fit].
In the case of `Cc1ccc(C2Cn3nnc(C(=O)N4CCC(C(=O)NCC(C)C)CC4)c3CO2)cc1` (stereo not given), the Potency is reported as “inactive”.
For `CC1=C[C@@H](CNC(=O)c2cccnc2)[C@H](C(C)C)C[C@H]1Cc1nc2ccc(F)cc2[nH]1`, the Potency was inconclusive: 63.1 µM [inhibitor, partial curve, poor fit].
For `O=C(NC1CCN(c2nccc(Nc3ccccc3F)n2)CC1)c1ccccc1Cl`, the Potency was inconclusive: 44.7 µM [inhibitor, partial curve, poor fit].
For `CN(Cc1cccc2cnccc12)C(=O)c1cn(Cc2ccccc2F)nn1`, the Potency was “inactive”.
With `CCc1nc2cc(N3CCC(C(=O)NCc4ccccc4F)CC3)cnc2nc1CC` the Potency was inconclusive: 70.8 µM [inhibitor, partial curve, poor fit].
In the case of `COc1ccc(CN2CCC(O)(CN3CCCCC3)C2)cc1Cl` (stereo not given), the Potency is reported as inconclusive: 89.1 µM [inhibitor, single point].
In the case of `O=C(NCCc1ccccn1)c1cc2n(n1)CC(c1ccc(Br)cc1)OC2` (stereo not given), the Potency is reported as inconclusive: 44.7 µM [inhibitor, partial curve, poor fit].
For `COc1ccc(-c2cccc(C(=O)NCCCOC(C)C)c2)nn1`, the Potency was “inactive”.
In the case of `Cn1c(Cn2cccn2)nnc1C1CC(Nc2ncnc3ccsc23)C1` (stereo not given), the Potency is reported as inconclusive: 50.1 µM [inhibitor, partial curve, poor fit].
For `O=C1CC2(CCN(C(=O)c3ccc(Cl)cc3)CC2)Oc2cc(Cl)ccc21`, the Potency was inconclusive: 44.7 µM [inhibitor, partial curve].
In the case of `CN(Cc1ccccc1)C(=O)[C@@H]1C[C@@H](c2ccc(F)cc2)N([S+](=O)([O-])c2ccccc2)C1`, the Potency is reported as inconclusive: 44.7 µM [inhibitor, partial curve, poor fit].
With `O=C(c1ccccc1)N1CCOCC12CCN(Cc1ccc3[nH]ccc3c1)CC2` the Potency was inconclusive: 89.1 µM [inhibitor, partial curve, poor fit].
With `COCC(=O)Nc1cc(-c2cccnc2)nn1-c1ccccc1` the Potency was inconclusive: 89.1 µM [inhibitor, partial curve, poor fit].
With `CCn1nc(C(C)C)cc1C(=O)N1CCc2onc(-c3cccc(F)c3)c2C1` the Potency was inconclusive: 35.5 µM [inhibitor, full curve].
In the case of `O=C(Nc1ccc2c(c1)CN(CCc1ccc(F)cc1)C(=O)CO2)c1c(F)cccc1F`, the Potency is reported as inconclusive: 56.2 µM [inhibitor, partial curve, poor fit].
In the case of `CCCCC(=O)N1CCC(N(Cc2ccccc2)C2CCOCC2)CC1`, the Potency is reported as “inactive”.
With `Cc1ccc(S(=O)(=O)c2nnn3c2nc(N2CCOCC2)c2ccccc23)cc1` the Potency was inconclusive: 17.8 µM [inhibitor, full curve, poor fit].
With `Cc1ccc(NC(=O)N2CCC(n3c(C)cnc3C3CCOCC3)CC2)cc1C` the Potency was “inactive”.
In the case of `CC(CCc1ccccc1)Nc1ncnc2c1CN(C1CCNC1)C(=O)CN2C` (stereo not given), the Potency is reported as “inactive”.
With `O=C(CCc1ccccc1)N1CCC(Cc2nncn2-c2ccccc2)C1` (stereo not given) the Potency was “inactive”.
In the case of `CN1CC(=O)N(c2ccc(Cl)cc2)Cc2c(NCc3cccs3)ncnc21`, the Potency is reported as inconclusive: 50.1 µM [inhibitor, partial curve, poor fit].
For `Cn1cnc(C(=O)N2CCCCCCn3c(nnc3-c3ccc(F)cc3)CC2)c1`, the Potency was “inactive”.
In the case of `CCOCCN1C(=O)COC[C@@H]1[C@H](O)c1ccc(NC(=O)c2cnccn2)cc1`, the Potency is reported as “inactive”.
For `Cc1ccccc1C(=O)N1CCc2c(nc(-c3ccncc3)nc2N(C)C)C1`, the Potency was inconclusive: 50.1 µM [inhibitor, partial curve, poor fit].
For `O=C1CC(c2noc(-c3cc(Cl)ccc3F)n2)CN1c1ccc(F)cc1` (stereo not given), the Potency was inconclusive: 44.7 µM [inhibitor, partial curve, poor fit].
